{"source": "PubChem BioAssay (NCATS)", "note": "Inconclusive results, whose numbers are uncertain, are shown with a selection of clear calls. Potencies of inconclusive entries are left out as doubtful fits. Active and inactive are the calls of the source. Calls come from the whole dose curve; as a rule, active = well fitted inhibition curve with a large enough effect; inconclusive = small, poorly fitted or top-dose-only effect, or another doubt; inactive = no such curve, though single readings can be large or run the other way. Potency is the fitted concentration of half-maximal effect; tags give direction and shape of the fitted curve."}
{"target": "DNA polymerase kappa (Homo sapiens) (UniProt Q9UBT6)", "sequence (Q9UBT6 whole entry, looked up)": "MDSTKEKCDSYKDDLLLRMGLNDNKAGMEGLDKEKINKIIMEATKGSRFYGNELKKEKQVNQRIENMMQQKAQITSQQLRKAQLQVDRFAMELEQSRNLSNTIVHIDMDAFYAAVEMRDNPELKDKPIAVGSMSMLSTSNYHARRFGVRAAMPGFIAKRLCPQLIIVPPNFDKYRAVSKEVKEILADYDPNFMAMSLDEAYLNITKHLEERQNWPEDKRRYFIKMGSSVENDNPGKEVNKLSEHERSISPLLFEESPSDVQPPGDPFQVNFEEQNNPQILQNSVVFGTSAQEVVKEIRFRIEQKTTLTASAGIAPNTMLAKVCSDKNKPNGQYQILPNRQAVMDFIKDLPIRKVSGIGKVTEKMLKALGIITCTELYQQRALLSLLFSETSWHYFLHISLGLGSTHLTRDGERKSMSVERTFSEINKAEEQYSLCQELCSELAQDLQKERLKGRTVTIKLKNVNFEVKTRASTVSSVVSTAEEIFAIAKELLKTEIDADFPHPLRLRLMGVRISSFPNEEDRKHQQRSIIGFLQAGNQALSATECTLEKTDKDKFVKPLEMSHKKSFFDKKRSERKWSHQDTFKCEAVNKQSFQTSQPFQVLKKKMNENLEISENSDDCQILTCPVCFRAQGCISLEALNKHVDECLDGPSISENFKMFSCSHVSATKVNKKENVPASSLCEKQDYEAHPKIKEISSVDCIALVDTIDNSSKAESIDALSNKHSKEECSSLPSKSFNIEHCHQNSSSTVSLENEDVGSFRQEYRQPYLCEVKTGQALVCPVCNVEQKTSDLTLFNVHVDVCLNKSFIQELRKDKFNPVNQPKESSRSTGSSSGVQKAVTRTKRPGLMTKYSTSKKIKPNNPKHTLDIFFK", "assay": "qHTS for Inhibitors of Polymerase Kappa: Confirmatory Assay for Cherry-picked Compounds (AID 720501)", "conditions": "purified Pol-kappa, fluorescent strand-displacement substrate", "procedure,_shortened": "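Strand-displacement fluorescence read-out: TAMRA reporter released from a BHQ-2-quenched template, measured at 525/598 nm over a 10 min kinetic window. Substrate was 50 nM final; enzyme was 10 nM Pol-kappa, preincubated 15 min at room temperature with compound.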"}
{"smiles": "CN1C(=O)C(=Cc2ccc(SC3CCCCC3)o2)C(=O)N(C)C1=O", "Potency": "inconclusive [inhibitor, partial curve]"}
{"smiles": "CCOc1ccc(-c2cc(C)n3nc(C(=O)Nc4ccc(C)c(C)c4)cc3n2)cc1", "Potency": "inconclusive [inhibitor, partial curve]"}
{"smiles": "NN=C1C(Cl)=C(Cl)C(Cl)=C1Cl", "Potency": "inconclusive [inhibitor, partial curve]"}
{"smiles": "C[n+]1c2ccccc2nc2ccc(NCCO)cc21", "Potency": "active: 42.3 µM"}
{"target": "DNA polymerase eta (Homo sapiens) (UniProt Q9Y253)", "sequence (Q9Y253 whole entry, looked up)": "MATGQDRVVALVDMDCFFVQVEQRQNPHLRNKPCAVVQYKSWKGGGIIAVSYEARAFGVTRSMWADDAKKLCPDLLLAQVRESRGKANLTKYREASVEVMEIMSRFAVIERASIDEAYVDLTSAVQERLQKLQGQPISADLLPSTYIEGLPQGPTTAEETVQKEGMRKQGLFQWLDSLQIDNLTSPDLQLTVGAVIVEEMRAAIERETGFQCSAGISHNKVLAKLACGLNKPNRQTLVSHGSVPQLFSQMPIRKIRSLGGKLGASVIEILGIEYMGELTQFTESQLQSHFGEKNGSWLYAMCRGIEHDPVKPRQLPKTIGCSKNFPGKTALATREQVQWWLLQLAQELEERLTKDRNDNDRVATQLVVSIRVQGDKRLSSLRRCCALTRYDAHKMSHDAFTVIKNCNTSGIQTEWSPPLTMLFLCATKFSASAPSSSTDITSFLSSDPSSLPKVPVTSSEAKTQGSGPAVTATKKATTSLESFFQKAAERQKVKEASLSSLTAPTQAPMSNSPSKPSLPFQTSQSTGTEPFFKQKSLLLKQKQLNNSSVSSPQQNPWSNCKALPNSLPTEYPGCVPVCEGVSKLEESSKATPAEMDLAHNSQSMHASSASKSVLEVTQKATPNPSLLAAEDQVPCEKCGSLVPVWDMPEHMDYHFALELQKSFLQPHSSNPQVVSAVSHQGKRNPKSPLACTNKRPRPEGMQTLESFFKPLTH", "assay": "qHTS for Inhibitors of Polymerase Eta: Confirmatory Assay for Cherry-picked Compounds (AID 720502)", "conditions": "Pol eta primer extension, TAMRA/BHQ fluorescence, 10 min", "procedure,_shortened": "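10 nM Pol eta + cpd, 15 min RT; start w/ 50 nM final primer/TAMRA-reporter/BHQ-2-template substrate; kinetic read 0 and 10 min, ex 525/em 598 nm. Buffer-only wells = negative control.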"}
{"smiles": "Cc1cc(/C=C2\\C(=O)NC(=O)N(c3ccc(F)cc3)C2=O)c(C)n1-c1cccc(C(=O)O)c1", "Potency": "inconclusive [inhibitor, full curve, poor fit]"}
{"smiles": "O=C1NC(=S)NC(=O)C12C(c1ccccc1)NC(=S)NC2c1ccccc1", "note": "(stereo not drawn)", "Potency": "inconclusive [inhibitor, single point]"}
{"smiles": "O=c1c2ccccc2nc(-c2ccco2)n1-c1nccs1", "Potency": "inconclusive [inhibitor, single point]"}
{"smiles": "O=c1[nH]c(O)c(/C=C2/C=CC(c3cc(Cl)ccc3Cl)=N2)c(=O)[nH]1", "Potency": "inconclusive [inhibitor, single point]"}
{"smiles": "Cc1cccc(N2C(=O)/C(=C/c3ccc(CN(CCC#N)S(C)(=O)=O)o3)C(=O)NC2=S)c1", "Potency": "inconclusive [inhibitor, full curve, poor fit]"}
{"smiles": "Cc1ccc(N2C(=O)NC(=O)/C(=C\\c3cc(C)n(-c4ccc(C(=O)O)cc4)c3C)C2=O)cc1", "Potency": "inconclusive [inhibitor, single point]"}
{"smiles": "CCN(CC)c1ccc(/C=C2/C(=O)NC(=O)N(Cc3ccco3)C2=O)cc1", "Potency": "inconclusive [inhibitor, single point]"}
{"smiles": "O=C(Nc1ccc2oc(-c3cccnc3)nc2c1)c1ccc(-c2cccc(Cl)c2)o1", "Potency": "active: 75.7 µM"}
{"smiles": "Cc1cccc(N2C(=O)NC(=O)/C(=C\\c3cccn3-c3ccc(Cl)cc3)C2=O)c1", "Potency": "active: 60.1 µM"}
{"smiles": "Cc1ccc(N2C(=O)NC(=O)/C(=C/C=C/c3ccco3)C2=O)cc1", "Potency": "inconclusive [inhibitor, single point]"}
{"smiles": "COc1cc(O)c(C(=O)O)c(-c2cc(O)c(O)cc2C)c1", "Potency": "inconclusive [inhibitor, single point]"}
{"smiles": "O=C1NC(=O)N(c2ccccc2)C(=O)/C1=C\\c1ccc([N+](=O)[O-])s1", "Potency": "active: 33.8 µM"}
{"smiles": "CCN(CC)c1ccc(/C=C2\\C(=O)NC(=O)N(Cc3ccco3)C2=O)cc1", "Potency": "inconclusive [inhibitor, single point]"}
{"smiles": "Cc1cccc(Oc2nc3c(C)cccn3c(=O)c2/C=C(\\C#N)c2nc3ccccc3s2)c1", "Potency": "inconclusive [inhibitor, single point]"}
{"smiles": "Cc1ccc(N2C(=O)NC(=O)/C(=C/c3ccoc3)C2=O)cc1", "Potency": "active: 16.9 µM"}
{"smiles": "O=C1NC(=O)N(c2ccccc2)C(=O)/C1=C/c1ccoc1", "Potency": "active: 75.7 µM"}
{"smiles": "COCOC1CCC2C3CCC4=CC(=O)CCC4=C3C=CC12C", "note": "(stereo not drawn)", "Potency": "inconclusive [inhibitor, single point]"}
{"smiles": "Cc1ccc2c(c1Cl)NC(C(=O)O)C1CC(Sc3ccccc3[N+](=O)[O-])C(Cl)C21", "note": "(stereo not drawn)", "Potency": "inconclusive [inhibitor, single point]"}
{"smiles": "Cc1cccc(N2C(=O)NC(=O)/C(=C\\c3ccc4c(c3)CCCN4Cc3ccccc3)C2=O)c1", "Potency": "inconclusive [inhibitor, single point]"}
{"smiles": "Cc1c(Cl)cccc1N1C(=O)NC(=O)/C(=C\\c2cc(C)n(-c3cccc(C(=O)O)c3C)c2C)C1=O", "Potency": "inconclusive [inhibitor, single point]"}
{"smiles": "N#Cc1c(-c2csc(-c3no[n+]([O-])c3C#N)c2)no[n+]1[O-]", "Potency": "inconclusive [inhibitor, single point]"}
{"smiles": "O=C1NC(=S)NC(=O)C12C(c1ccc(F)cc1)NC(=S)NC2c1ccc(F)cc1", "note": "(stereo not drawn)", "Potency": "inconclusive [inhibitor, single point]"}
{"smiles": "O=C(O)CCn1cc(C=C2C(=O)NC(=S)NC2=O)c(-c2cc3ccccc3oc2=O)n1", "Potency": "active: 30.1 µM"}
{"smiles": "COc1ccc(S(=O)(=O)Nc2ccccc2OC)cc1N=Nc1c(O)[nH]c(=S)[nH]c1=O", "Potency": "inconclusive [inhibitor, single point]"}
